Values marked as one replicate rest on one cluster of the flow cell; about a third of the high ones do not repeat.

This data set deals with ATP. In words: switch fluorescence ratio, 500 uM ATP over buffer (Cy3 cluster intensity, sum of 5 cycles each) (fold (ratio)); higher = stronger signal-on switching upon ATP binding; sequences stand for … in TCGTCGGCAGCGTCAGATGTGTATAAGAGACAGTTTTTTTTTTTTTTTTTTTTTTTTT…TC. The conditions noted are these: aptamer strand: ATP DNA aptamer (quencher-CACCTGGGGGAGTATTGCGGAGGAAGG + anchor), 100 nM annealed; ATP concentration: 500 uM; one replicate. The method in brief:
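After annealing to 100 nM quencher-labelled ATP aptamer, Cy3-labelled switching-strand clusters on a modified Illumina MiSeq flow-cell were imaged in selection buffer. A second image followed after 15 min with 500 uM ATP at 22 °C, and five such buffer/ATP cycles were done, each separated by NaOH stripping and re-annealing. The fluorescence ratio, averaged per switch-domain sequence, is summed target-cycle over summed buffer-cycle Cy3 intensity per cluster, with clusters outside 100-1000 RFU excluded.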
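Further: ATP exposure 15 min at 22 °C before imaging.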

Turning to CCAGCTTAG, the switch fluorescence ratio worked out at 1.06.
For CTTTCATGGT, the switch fluorescence ratio was 0.971.
The figure for CCTGTCCACG is 1.02.
Take GTCGAACGAA: the switch fluorescence ratio was 1.18.
For the sequence TACTTATTGA, the switch fluorescence ratio came to 0.986.
For CTAACGCCGG, the switch fluorescence ratio amounted to 1.04.
For TTGGAACTTT the value was 1.05; for ATAACTTATG, 1.03.
As to CAAAGTGC, the switch fluorescence ratio came to 1.06.
For CATGGGATAA the value was 1.01.
For AATTGGCTT the value was 1.34; for GGATAATAAT, 1.02.
For TGCCTTGCAT the value was 0.984; for GGTAGGGGAG, 0.971; for TTCCCTTTAT, 1.02.
On to TTAAATTGGC, for which the switch fluorescence ratio was 1.
Turning to ACCGGCCTAG, the switch fluorescence ratio was 1.1.
The figure for AGAAAAGTAA is 1.02; for GATTCTATTA it is 1.01.
The figure for CTTAGCGTTA is 1.05; for ATGTGGAGGC it is 1.04; for AACTCGGGCG it is 0.932.
The figure for CTATGCGTAG is 1.05; for GAGATTCTTC it is 1.05.
Regarding TCCCTAGATC, the switch fluorescence ratio was found to be 1.08.
As for TCGAGTCAGA, the switch fluorescence ratio came out at 1.03.
Turning to CCCTTTGCGT, the switch fluorescence ratio stood at 1.04.
The figure for GGGACAATTT is 0.998; for TCCAGCGAGC it is 1.04.
As to TATTGCTACG, the switch fluorescence ratio amounted to 0.999.
With GTTTTGCTAA, the switch fluorescence ratio was 1.02.
For GGGCTTAGAC the value was 1.03; for GTGGGCCTAG, 1.01.
For TACCGCGGTA the value was 0.995.
As to TGTGAGTCAT, the switch fluorescence ratio came out at 0.962.
For TCATCAGCGC the value was 0.987; for ACGGTAAATA, 1.03.
For TGTGCTTTAG the value was 1.02; for CAACGTTATA, 1.19; for GCGGGGACCA, 1.
For AAAGGCTGGT the value was 0.989; for AAACGCACTA, 1.27.
As for TACCCTGTCA, the switch fluorescence ratio stood at 1.05.
For CCTGGTGGGT the value was 1.06; for TTGCCTGCGC, 1.08; for GACGCCTAGC, 1.29.
For TTCCCGTATT the value was 1.29.
As to CGAGGCTGTC, the switch fluorescence ratio was 0.967.
For the sequence GCTTATTCCG, the switch fluorescence ratio is 1.09.
The figure for TAGCCAGCAC is 1.11; for GGTGGGGGAA it is 0.997.
Regarding TGTGACCCCG, the switch fluorescence ratio is 0.904.
For CCCCACTGGT the value was 1.55.
The figure for TATAAACGAT is 0.957; for GAGTTCTCCT it is 0.997; for ATTTTCCTCA it is 1.09.
The figure for TCCTGGCAGT is 1.53; for CTTTCACCGG it is 1.04.
On to ATGCTGTGAC, for which the switch fluorescence ratio turned out to be 1.
The figure for TGCTCATCCG is 1.13; for GCCGGAGACG it is 1.01.
For CTAGGGACGA, the switch fluorescence ratio was found to be 1.04.
The figure for AAGTGTTTGT is 1.01; for CGTGGAAAGA it is 1.02; for TACCGAGTAG it is 1.01.
The figure for GCCATAAAAA is 0.971; for GTGGACAGAT it is 0.966.

The values above are taken from the supplement of paper PMC10126150.
